# In the supplement of paper PMC8728848:
# The other results are listed elsewhere or left out.
# B1: LEA (Lycopersicon esculentum) (protein)
# chain: NEVFDVPMNETIGVESINASVGGYPRCGAQGDGGNCPSGMCCSVWGWCGKTYGYCAPQNCQKQCPAPYPEGRCGWQADGKSCPNGKCCSYGGWCGTTSDYCARQNCQKQCILPSPPPPPPPPPGFPRPECGLQKNGERCTKPGECCSIWGLCGATYKYCDPQHCQKQCSAPFPPGRCGWQADGRPCPTGQCCSFSGWCGTTSAHCTYPQCVSQCNDPRFPSSLNNRIQSFML
# Legend:
# Assay in all cases: glycan array binding signal (z-score within array); higher = stronger binding
# Settings in all cases: glycan notation: IUPAC condensed, linker removed
# Gal(b1-3)GalNAc = target: Gal(b1-3)GalNAc
# In short: (§1)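 From the Consortium for Functional Glycomics database, 3228 arrays were curated, keeping only those whose protein sequence was available. Binding is given as a within-array Z-score averaged across arrays sharing a protein sequence and across linkers. Negative Z-scores can be read as non-binding.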
# [1] = target: Gal(b1-3)GalNAc(b1-3)Gal(a1-4)Gal(b1-4)Glc
# In short: as §1
# [2] = target: Gal(b1-3)GalNAc(b1-3)Gal(b1-4)Glc
# In short: as §1
# [3] = target: Gal(b1-3)GalNAc(b1-3)Gal(b1-4)GlcNAc
# In short: as §1
# [4] = target: Gal(b1-3)GalNAc(b1-4)Gal(b1-4)Glc
# In short: as §1
# [5] = target: Gal(b1-3)GalNAc(b1-4)[Neu5Ac(a2-3)]Gal(b1-4)Glc
# In short: as §1
# [6] = target: Gal(b1-3)GlcNAc(b1-3)Gal(b1-3)GlcNAc
# In short: as §1
# [7] = target: Gal(b1-3)[Fuc(a1-4)]GlcNAc
# In short: as §1
# [8] = target: Gal(b1-3)[Fuc(a1-4)]GlcNAc(b1-3)Gal(b1-3)[Fuc(a1-4)]GlcNAc
# In short: as §1
# [9] = target: Gal(b1-3)[Fuc(a1-4)]GlcNAc(b1-3)Gal(b1-4)GlcNAc
# In short: as §1
# [10] = target: Gal(b1-3)[Fuc(a1-4)]GlcNAc(b1-3)Gal(b1-4)[Fuc(a1-3)]GlcNAc
# In short: as §1
# [11] = target: Gal(b1-3)[GlcNAc(b1-6)]GalNAc
# In short: as §1
# [12] = target: Gal(b1-3)[GlcNAc(b1-6)]GlcNAc
# In short: as §1
# [13] = target: Gal(b1-3)[Neu5Ac(a2-6)]GalNAc
# In short: as §1
# [14] = target: Gal(b1-3)[Neu5Ac(a2-6)]GlcNAc
# In short: as §1
# [15] = target: Gal(b1-3)[Neu5Ac(a2-6)]GlcNAc(a1-4)Gal(b1-4)Glc
# In short: as §1
# [16] = target: Gal(b1-3)[Neu5Ac(b2-6)]GlcNAc
# In short: as §1
# [17] = target: Gal(b1-4)GalNAc(a1-3)[Fuc(a1-2)]Gal(b1-4)GlcNAc
# In short: as §1
# [18] = target: Gal(b1-4)GalNAc(b1-3)[Fuc(a1-2)]Gal(b1-4)GlcNAc
# In short: as §1
# Gal(b1-4)Glc = target: Gal(b1-4)Glc
# In short: as §1
# Gal(b1-4)Glc6S = target: Gal(b1-4)Glc6S
# In short: as §1
# Gal(b1-4)GlcNAc = target: Gal(b1-4)GlcNAc
# In short: as §1
# [19] = target: Gal(b1-4)GlcNAc(b1-2)Man(a1-3)[Gal(b1-4)GlcNAc(b1-2)Man(a1-6)]Man(b1-4)GlcNAc(b1-4)GlcNAc
# In short: as §1
# [20] = target: Gal(b1-4)GlcNAc(b1-3)Gal(b1-3)GlcNAc
# In short: as §1
# [21] = target: Gal(b1-4)GlcNAc(b1-3)Gal(b1-4)Glc
# In short: as §1
# [22] = target: Gal(b1-4)GlcNAc(b1-3)Gal(b1-4)GlcNAc
# In short: as §1
# [23] = target: Gal(b1-4)GlcNAc(b1-3)Gal(b1-4)GlcNAc(b1-3)Gal(b1-4)GlcNAc
# In short: as §1
# [24] = target: Gal(b1-4)GlcNAc(b1-3)Gal(b1-4)[Fuc(a1-3)]GlcNAc(b1-3)Gal(b1-4)[Fuc(a1-3)]GlcNAc
# In short: as §1
# [25] = target: Gal(b1-4)GlcNAc(b1-3)GalNAc
# In short: as §1
# [26] = target: Gal(b1-4)GlcNAc(b1-3)[Gal(b1-4)GlcNAc(b1-6)]GalNAc
# In short: as §1
# [27] = target: Gal(b1-4)GlcNAc(b1-6)GalNAc
# In short: as §1
# [28] = target: Gal(b1-4)GlcNAc(b1-6)[Gal(b1-3)]GalNAc
# In short: as §1
# [29] = target: Gal(b1-4)GlcNAc(b1-6)[Gal(b1-3)]GlcNAc
# In short: as §1
# Gal3S(b1-3)GalNAc = target: Gal3S(b1-3)GalNAc
# In short: as §1
# Gal3S(b1-3)GlcNAc = target: Gal3S(b1-3)GlcNAc
# In short: as §1
# [30] = target: Gal3S(b1-3)[Fuc(a1-4)]GlcNAc
# In short: as §1
binder,measurement,setting,value
B1,glycan array binding signal (z-score),Gal(b1-3)GalNAc,-0.539
same,glycan array binding signal (z-score),[1],-0.547
same,glycan array binding signal (z-score),[2],-0.489
same,glycan array binding signal (z-score),[3],2.38
same,glycan array binding signal (z-score),[4],-0.552
same,glycan array binding signal (z-score),[5],-0.548
same,glycan array binding signal (z-score),[6],-0.561
same,glycan array binding signal (z-score),[7],-0.546
same,glycan array binding signal (z-score),[8],-0.562
same,glycan array binding signal (z-score),[9],-0.557
same,glycan array binding signal (z-score),[10],-0.546
same,glycan array binding signal (z-score),[11],-0.549
same,glycan array binding signal (z-score),[12],-0.566
same,glycan array binding signal (z-score),[13],-0.557
same,glycan array binding signal (z-score),[14],-0.549
same,glycan array binding signal (z-score),[15],-0.546
same,glycan array binding signal (z-score),[16],-0.549
same,glycan array binding signal (z-score),[17],1.97
same,glycan array binding signal (z-score),[18],2.17
same,glycan array binding signal (z-score),Gal(b1-4)Glc,-0.552
same,glycan array binding signal (z-score),Gal(b1-4)Glc6S,-0.026
same,glycan array binding signal (z-score),Gal(b1-4)GlcNAc,1.88
same,glycan array binding signal (z-score),[19],-0.492
same,glycan array binding signal (z-score),[20],-0.542
same,glycan array binding signal (z-score),[21],-0.471
same,glycan array binding signal (z-score),[22],2.07
same,glycan array binding signal (z-score),[23],2.07
same,glycan array binding signal (z-score),[24],-0.53
same,glycan array binding signal (z-score),[25],-0.559
same,glycan array binding signal (z-score),[26],-0.527
same,glycan array binding signal (z-score),[27],0.621
same,glycan array binding signal (z-score),[28],-0.54
same,glycan array binding signal (z-score),[29],-0.455
same,glycan array binding signal (z-score),Gal3S(b1-3)GalNAc,-0.526
same,glycan array binding signal (z-score),Gal3S(b1-3)GlcNAc,-0.518
same,glycan array binding signal (z-score),[30],-0.518
